This note sets out measurements from the supplement of paper PMC8948288.

In general, cell viability refers to a read-out of living cells in per cent, often relative to untreated cells.

The sequences are guide strands of siRNAs; only the seed at positions 2 to 7 varies.

The test system of one series is GL261. Put plainly: cell viability relative to siNT1 (ATP content); H4 human neuroglioma and GL261 mouse glioma; higher = less toxic. To be noted: siRNA concentration 25 nM; 96 h; mouse. As for the experimental part: (§1)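 Arrayed screen of all 4096 6mer seeds. Each seed sits at guide-strand positions 2-7 of a neutral 19mer siRNA backbone (siNT1-based, passenger strand 2'-O-methyl modified at positions 1-2 to block RISC loading, 3' DNA overhangs). The guide strand is built here as U + seed + ACAUGUAAACCA. Cells were reverse transfected in triplicate in 384-well plates (H4 at 10 nM, GL261 at 25 nM) with Lipofectamine RNAiMAX. Viability was read as ATP content (CellTiter-Glo) 96 h after transfection and normalised to siNT1 (%).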

The next series deals with H4. The series is described as above. To be noted: siRNA concentration 10 nM; 96 h; human. As for the experimental part:
as §1
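Further: cells reverse transfected with siRNA duplexes via lipid reagent, ATP read by luminescence, triplicate wells, values scaled to mean viability with non-targeting control siNT1.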

Take UAGAGGAACAUGUAAACCA: the cell viability with GL261 stood at 16.7%; in the series with H4 it was 86.8%.
The like results for UAGAGGCACAUGUAAACCA were, in that order, 2.67% and 51.3%.
With UAGAGGGACAUGUAAACCA, the cell viability with GL261 is 22.9%; in the series with H4 it was 88.6%.
UAGAGGUACAUGUAAACCA: the cell viability in the series with GL261 was found to be 6.71%; with H4, 61.5%.
The like results for UAGAGUAACAUGUAAACCA were, in that order, 33% and 91.2%.
Taken in the same sequence, the figures for UAGAGUCACAUGUAAACCA were 26.9% and 53.2%.
The like results for UAGAGUGACAUGUAAACCA were, in that order, 34.8% and 80.8%.
Turning to UAGAGUUACAUGUAAACCA, the cell viability is 30.2% in the series with GL261 and 85.1% in the series with H4.
Take UAGAUAAACAUGUAAACCA: the values for the cell viability with GL261 and in the series with H4 were 52% and 85.8%, respectively.
The like results for UAGAUACACAUGUAAACCA were, in that order, 30.2% and 82%.
Consider UAGAUAGACAUGUAAACCA, for which the cell viability amounted to 50.8% in the series with GL261 and 105% in the series on H4.
Taken in the same sequence, the figures for UAGAUAUACAUGUAAACCA were 48.9% and 114%.
Take UAGAUCAACAUGUAAACCA: the cell viability in the series on GL261 was 50.4%; with H4 it was 85.9%.
Turning to UAGAUCCACAUGUAAACCA, the cell viability with GL261 was determined as 19.2%; in the series on H4, 73.2%.
For UAGAUCGACAUGUAAACCA, the figures for the cell viability with GL261 and in the series with H4 were 56.8% and 94.7%, respectively.
Turning to UAGAUCUACAUGUAAACCA, the cell viability with GL261 stood at 34.2%; with H4 it was 71.1%.
Regarding UAGAUGAACAUGUAAACCA, the cell viability with GL261 amounted to 54.2%; with H4, 97.4%.
Taken in the same sequence, the figures for UAGAUGCACAUGUAAACCA were 20.1% and 43%.
Turning to UAGAUGGACAUGUAAACCA, the cell viability in the series on GL261 came to 42.7%; in the series with H4, 59%.
Regarding UAGAUGUACAUGUAAACCA, the cell viability in the series on GL261 was determined as 28.2%; in the series with H4, 88.4%.
Taken in the same sequence, the figures for UAGAUUAACAUGUAAACCA were 63.8% and 93%.
Taken in the same sequence, the figures for UAGAUUCACAUGUAAACCA were 54.7% and 71.4%.
The like results for UAGAUUGACAUGUAAACCA were, in that order, 67.6% and 90%.
Consider UAGAUUUACAUGUAAACCA, for which the figures for the cell viability with GL261 and in the series on H4 were 65.3% and 116%, respectively.
Taken in the same sequence, the figures for UAGCAAAACAUGUAAACCA were 68.7% and 115%.
As to UAGCAACACAUGUAAACCA, the cell viability with GL261 is 50.6%; with H4, 104%.
Taken in the same sequence, the figures for UAGCAAGACAUGUAAACCA were 73.4% and 74.9%.
The like results for UAGCAAUACAUGUAAACCA were, in that order, 52.8% and 99.2%.
The like results for UAGCACAACAUGUAAACCA were, in that order, 41.2% and 87.2%.
Turning to UAGCACCACAUGUAAACCA, the cell viability in the series with GL261 was 44.9%; in the series on H4, 68.7%.
UAGCACGACAUGUAAACCA: the cell viability worked out at 53.6% in the series with GL261 and 102% in the series on H4.
Turning to UAGCACUACAUGUAAACCA, the cell viability in the series with GL261 stood at 26.8%; with H4, 83.1%.
UAGCAGAACAUGUAAACCA: the cell viability with GL261 was determined as 63.7%; with H4 it was 95%.
Turning to UAGCAGCACAUGUAAACCA, the cell viability in the series with GL261 came to 21.2%; in the series with H4, 14.4%.
Turning to UAGCAGGACAUGUAAACCA, the figures for the cell viability in the series with GL261 and in the series with H4 were 35.3% and 46.6%, respectively.
Take UAGCAGUACAUGUAAACCA: the cell viability in the series on GL261 is 33.1%; with H4 it was 49.4%.
For the sequence UAGCAUAACAUGUAAACCA, the cell viability in the series on GL261 amounted to 59.2%; in the series on H4 it was 95.3%.
In the case of UAGCAUCACAUGUAAACCA, the cell viability in the series on GL261 worked out at 43.3%; with H4 it was 86%.
The like results for UAGCAUGACAUGUAAACCA were, in that order, 36.9% and 106%.
Consider UAGCAUUACAUGUAAACCA, for which the cell viability in the series on GL261 stood at 51.1%; in the series on H4 it was 92.6%.
Taken in the same sequence, the figures for UAGCCAAACAUGUAAACCA were 63.8% and 88.1%.
Taken in the same sequence, the figures for UAGCCACACAUGUAAACCA were 37% and 75.9%.
Taken in the same sequence, the figures for UAGCCAGACAUGUAAACCA were 42.7% and 67.4%.
In the case of UAGCCAUACAUGUAAACCA, the results for the cell viability in the series on GL261 and in the series with H4 were 45.6% and 70%, respectively.
With UAGCCCAACAUGUAAACCA, the cell viability in the series with GL261 worked out at 52.8%; in the series with H4, 71.8%.
For the sequence UAGCCCCACAUGUAAACCA, the cell viability in the series with GL261 stood at 35.6%; in the series on H4, 101%.
The like results for UAGCCCGACAUGUAAACCA were, in that order, 52.2% and 85.6%.
The like results for UAGCCCUACAUGUAAACCA were, in that order, 22.2% and 94.3%.
The like results for UAGCCGAACAUGUAAACCA were, in that order, 68.4% and 72.4%.
Turning to UAGCCGCACAUGUAAACCA, the cell viability was found to be 17.8% in the series on GL261 and 35.2% in the series with H4.
Taken in the same sequence, the figures for UAGCCGGACAUGUAAACCA were 53.8% and 48.4%.
UAGCCGUACAUGUAAACCA: the cell viability worked out at 60.7% in the series with GL261 and 63.6% in the series on H4.
The like results for UAGCCUAACAUGUAAACCA were, in that order, 79.2% and 93.5%.
Taken in the same sequence, the figures for UAGCCUCACAUGUAAACCA were 46.8% and 26.2%.
The like results for UAGCCUGACAUGUAAACCA were, in that order, 57.6% and 69.2%.
For the sequence UAGCCUUACAUGUAAACCA, the results for the cell viability in the series on GL261 and with H4 were 44.3% and 41.8%, respectively.
With UAGCGAAACAUGUAAACCA, the cell viability in the series with GL261 came out at 61%; in the series with H4 it was 107%.
Taken in the same sequence, the figures for UAGCGACACAUGUAAACCA were 42.3% and 86%.
Taken in the same sequence, the figures for UAGCGAGACAUGUAAACCA were 65.5% and 87.4%.
On to UAGCGAUACAUGUAAACCA, for which the cell viability stood at 62.5% in the series on GL261 and 77.1% with H4.
The like results for UAGCGCAACAUGUAAACCA were, in that order, 61.3% and 93.4%.
Taken in the same sequence, the figures for UAGCGCCACAUGUAAACCA were 64.3% and 66.2%.
The like results for UAGCGCGACAUGUAAACCA were, in that order, 48.1% and 99.7%.
As to UAGCGCUACAUGUAAACCA, the cell viability in the series on GL261 was found to be 67.5%; in the series on H4, 95.5%.
Taken in the same sequence, the figures for UAGCGGAACAUGUAAACCA were 48.3% and 84.7%.
